# Out of some 310,000 compounds screened, about 2,200 (0.71%) showed an effect of 50% or more. Effects have a minus sign here. This is one part of the list.
# Target: human ether-à-go-go-related gene (hERG) potassium channel (human, UniProt Q12809)
# Assay: primary screen, population patch clamp on CHO cells stably expressing hERG
# human ether-à-go-go-related gene (hERG) potassium channel, sequence (Q12809 whole entry, looked up): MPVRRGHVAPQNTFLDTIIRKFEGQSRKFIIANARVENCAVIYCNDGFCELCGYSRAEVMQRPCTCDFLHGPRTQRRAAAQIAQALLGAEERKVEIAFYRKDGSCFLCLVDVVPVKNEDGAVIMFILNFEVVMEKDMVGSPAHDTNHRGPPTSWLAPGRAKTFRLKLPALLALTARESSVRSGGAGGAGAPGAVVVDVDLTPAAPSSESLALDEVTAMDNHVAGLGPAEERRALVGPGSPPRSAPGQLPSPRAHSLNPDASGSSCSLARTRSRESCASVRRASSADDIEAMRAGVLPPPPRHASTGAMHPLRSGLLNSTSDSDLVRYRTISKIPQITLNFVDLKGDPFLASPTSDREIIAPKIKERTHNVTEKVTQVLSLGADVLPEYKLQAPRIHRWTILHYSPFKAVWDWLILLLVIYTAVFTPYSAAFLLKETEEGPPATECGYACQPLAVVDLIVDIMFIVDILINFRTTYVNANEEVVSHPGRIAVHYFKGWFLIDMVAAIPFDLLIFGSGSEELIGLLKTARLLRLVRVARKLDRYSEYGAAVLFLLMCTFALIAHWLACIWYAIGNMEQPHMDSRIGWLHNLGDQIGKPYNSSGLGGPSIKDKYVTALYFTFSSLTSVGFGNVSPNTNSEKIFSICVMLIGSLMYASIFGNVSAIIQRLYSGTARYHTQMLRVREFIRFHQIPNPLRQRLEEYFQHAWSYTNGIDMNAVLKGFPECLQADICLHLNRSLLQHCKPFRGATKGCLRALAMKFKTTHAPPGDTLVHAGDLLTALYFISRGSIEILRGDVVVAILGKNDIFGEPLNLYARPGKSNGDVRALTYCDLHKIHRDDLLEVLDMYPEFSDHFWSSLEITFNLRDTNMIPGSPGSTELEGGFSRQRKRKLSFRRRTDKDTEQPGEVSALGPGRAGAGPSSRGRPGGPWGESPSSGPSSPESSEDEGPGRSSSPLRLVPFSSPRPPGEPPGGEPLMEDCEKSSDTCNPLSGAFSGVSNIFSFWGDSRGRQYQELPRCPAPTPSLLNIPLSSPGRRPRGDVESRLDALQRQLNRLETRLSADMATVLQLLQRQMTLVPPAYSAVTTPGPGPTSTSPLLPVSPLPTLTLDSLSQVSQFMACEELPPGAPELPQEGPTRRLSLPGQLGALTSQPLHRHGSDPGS
row,Structure (SMILES),"hERG current change (%, negative = inhibition) at 1uM [%]"
1,COc1ccc(C(C)=O)cc1CC(=O)Nc1ccc2c(c1)CCC2,9.4
2,CCCSc1ccc([C@@H]2[C@H]3C(=O)N(CC)C(=O)[C@H]3[C@]3(C(=O)OC)CCCN23)cc1OC.O=C(O)C(F)(F)F,1.95
3,Cc1nc(CC(=O)N2CCN(S(=O)(=O)c3ccccc3C#N)CC2)cs1,13.3
4,COc1ccc2[nH]c(=O)c(CN(C)C(=O)c3ccncc3)cc2c1,2.86
5,Cc1c(OCC(=O)NCCN2CCOCC2)ccc2c1oc(=O)c1ccccc12,-11
6,CCCCOC(=O)c1ccc(NC(=O)COC(=O)CSc2nc(C)cc(C)n2)cc1,7.95
7,COc1ccc2[nH]c(=O)c(CN(Cc3ccccc3OC)Cc3nnnn3CC3CCCO3)cc2c1 (centres unmarked),7.78
8,CCc1ccc(OCCCC(=O)Nc2cccc(C(=O)O)c2)cc1,10
9,CCCOc1ccc(-c2nnn(CC(=O)N3CCCCC3)n2)cc1,13.5
10,CCOC(=O)[C@H]1[C@H]2COc3ccccc3[C@@H]2N2C(=O)c3ccc(C)cc3NC(=O)[C@@]12C,12.3
11,CC(=O)Nc1ccc(NC(=O)CCCSc2nc3ccccc3s2)cc1,0.605
12,COc1cccc(/C=N/NC(=O)C[n+]2ccccc2)c1OC.[Cl-],2.16
13,O=C(CCl)c1ccc2[nH]c(=O)oc2c1,12.1
14,Cn1c(=O)c2c(SCC(=O)N3CCOCC3)nc(C3CC3)nc2n(C)c1=O,4.44
15,CC(=O)NC1=NN(C(C)=O)C2(S1)C(=O)N(CC(C)C)c1ccc(C)cc12 (centres unmarked),11.6
16,O=C(c1ccc2c(=O)n3c(nc2c1)CCCCC3)N1CCN(c2ccc([N+](=O)[O-])cc2)CC1,-31.4
17,Cc1ccc(NC(=O)CN2CCCC2)c2c1CC(C)(C)O2,19.6
18,Cc1sc(NC(=O)c2ccco2)c(CN2CCCCC2)c1C,-9.1
19,CC(CC(=O)Nc1cccnc1)c1ccccc1 (centres unmarked),25.3
20,Cc1ccsc1C(=O)OCC(=O)N1CC(=O)Nc2ccccc21,11
21,CCN(CC(=O)Nc1c(F)cccc1F)C(=O)Cc1c(C)nc2ccccc2c1C,-9.21
22,O=C(NCCCCc1ccccc1)c1ccc(Br)cc1,12.9
23,Cc1ccccc1NS(=O)(=O)c1cc(C(=O)Nc2cccc(N(C)S(C)(=O)=O)c2)ccc1C,11.4

row,Structure (SMILES),"hERG current change (%, negative = inhibition) at 1uM [%]"
1,Cc1ccc(-c2nc(NC(=O)CSc3ccc4ccccc4n3)ns2)cc1,2.8
2,CC(C)(C)N1C(=O)c2ccc(C(=O)Nc3nccs3)cc2C1=O,3.2
3,S=C1NNC2(CC3CC2C2CCCC32)NN1 (centres unmarked),-1.06
4,CC(=O)c1ccc(NC(=S)NC(NC(=O)c2ccco2)C(Cl)(Cl)Cl)cc1 (centres unmarked),-5.72
5,COc1ccccc1CCC(=O)OCC(=O)Nc1cccc(S(=O)(=O)N2CCCCC2)c1,7.57
6,O=C(Nc1sc2c(c1C(=O)O)CCCC2)c1ccc(F)cc1,13.3
7,O=C(c1ccc([N+](=O)[O-])o1)N1CCOCC1,9.96
8,COC(=O)c1ccc(Oc2c(F)c(F)nc(N3CCOCC3)c2F)cc1,14.6
9,CCN(CC)CCOC(=O)c1cc2cc(COC)ccc2o1.CI,9.98
10,O=C(COC(=O)c1ccc(-c2nnc(-c3ccccc3)o2)cc1)c1ccccc1,12.4
11,COC(=O)C(C(=O)Nc1cccc(Cl)c1C)C1CCCC1 (centres unmarked),5.04
12,Cn1nc(C(C)(C)C)cc1C(=O)NNC(=O)c1ccccc1Cl,11.8
13,COCCN1C=C(C(=O)OC)C(c2cc3c(cc2Br)OCO3)C(C(=O)OC)=C1,5.87
14,COc1ccc(C2(CN(C(C)=O)C(C)=O)CCCC2)cc1OC,9.22
15,N#Cc1ccc(Oc2ccc(S(=O)(=O)N3CCCC3)cn2)cc1,7.09
16,COC(=O)CN(Cc1ccco1)S(=O)(=O)c1ccccc1,0.396
17,CCn1c(-c2ccccc2Cl)nn(CC(=O)Nc2ccccc2OC)c1=S,14
18,CCOC(=O)C1CCCN(Cc2ccc(OCc3ccccc3)cc2)C1.O=C(O)C(=O)O (centres unmarked),-3.15
19,Cc1c(C(=O)OC(C)C)sc(N)c1C(=O)OC(C)C,1.71
20,COc1ccccc1N1CCN(c2nc(C)nc3c2oc2ccccc23)CC1.Cl,9.97
21,CC1CN(CCOCCSc2ccccc2)CC(C)O1.Cl (centres unmarked),3.85
22,O=C(CC(=O)N/N=C\c1ccc(F)cc1)NCCc1ccccc1,21.6
23,CC1CCN(C(=O)c2ccc3c(c2)NC(=O)CN3)CC1,11.2

row,Structure (SMILES),"hERG current change (%, negative = inhibition) at 1uM [%]"
1,COc1ccccc1N1CCN(C(c2cccs2)C(C)NC(=O)c2ccncc2)CC1 (centres unmarked),6.16
2,OCCNCCCCCOc1ccc(F)cc1,7.98
3,O=C1NCCN1Cc1ccc(F)cc1,-1.03
4,COc1cccc(/C=N/NC(=O)c2c(C)nc3ccc(Cl)cn23)c1O,15.1
5,Cc1cccc(C)c1NC(=O)CN(C)C(=O)c1ccccc1C(=O)N(C)Cc1ccccc1,11.3
6,COc1ccc(C(=O)Nc2ccc3c(c2)OCCO3)cc1Br,14.3
7,CCc1cc2cc(C(=O)N3CCN(Cc4ccccc4)CC3)sc2s1,3.36
8,CCOC(=O)C1(CCOC)CCN(C(=O)c2ccc(CSC)o2)CC1,8.08
9,CCc1ccccc1NC(=O)c1cc(-c2ccc(F)cc2)on1,12.6
10,O=C1COc2ccc(C(=O)COC(=O)/C=C/c3ccco3)cc2N1,13.9
11,COc1ccc(-c2cc(C(F)(F)F)nc(SCC(=O)NCc3cccs3)n2)cc1,10.3
12,COc1cccc(OC)c1C(=O)NNC(=O)c1ccc(F)cc1,15.8
13,COc1ccc(-n2c(=O)[nH]c3c(C(N)=O)nc(C4CCCCC4)nc32)cc1,-0.925
14,CC(C)(C)C(=O)Nc1ccccc1C(=O)NCc1cccnc1,17.9
15,O=c1c2ccccc2cnn1Cc1n[nH]c(=S)n1-c1ccccc1F,12.2
16,Fc1cccc2sc(N3CCOCC3)nc12,10.6
17,COc1cc(-c2cc(=O)c3c(O)cc(O)cc3o2)ccc1O,15.5
18,O=C(Nc1ccccc1[N+](=O)[O-])c1cncc(Br)c1,15
19,CC(=O)Nc1c(NC(=O)CC#N)[nH]c2c(c1=O)c(=O)n(C)c(=O)n2C,9.14
20,CCCCC(=O)N/N=C/c1c(O)n(Cc2ccco2)c(=O)[nH]c1=O,16.9
21,OC(c1ccc(Cl)cc1)c1nnc(-c2ccccc2)o1 (centres unmarked),3.02
22,Nc1cc([N+](=O)[O-])ccc1Nc1ccc(O)cc1,6.98
23,CSc1nc(N)nc(SCC(=O)Nc2ccc(Cl)cc2)c1C#N,-5.11

row,Structure (SMILES),"hERG current change (%, negative = inhibition) at 1uM [%]"
1,O=C(NC(=S)Nc1nc(-c2cccc3ccccc23)cs1)c1cc2ccccc2o1,3.65
2,CCC[C@@H]1CCCC/C=C\CCCC(=O)OCCN1C(=O)OC(C)(C)C,15.4
3,Cc1ccc(S(=O)(=O)N2CCCC(C(=O)NCC(C)C)C2)cc1 (centres unmarked),10.9
4,COc1cc(C2C3=C(CC(c4ccco4)CC3=O)Nc3ccccc3N2C(C)=O)cc(OC)c1OC (centres unmarked),6.46
5,O=S(=O)(Nc1ccc2c(c1)OCCO2)c1cccs1,14.4
6,CN(NC(=O)c1ccc(Cl)cc1)c1cccc(Cl)n1,2.41
7,CC12CC[C@H]3[C@@H](CCC4(O)C[C@H](O)CCC34/C=N/NC(=O)Cc3ccccc3)C1(O)CCC2C1=CC(=O)OC1 (some centres unmarked),12.4
8,Cc1cccc([N+](=O)[O-])c1NC(=O)CSc1nnc2ccccn12,1.83
9,Cc1ccc(C(=O)NCc2nnc(SCC(=O)Nc3ccccc3)n2C)cc1,2.07
10,COc1cc(S(=O)(=O)N2CCCCCC2)c(OC)cc1Br,8.86
11,Cc1ccc(CN2C(=O)CCC2C(=O)NCCN2CCN(c3cccc(Cl)c3)CC2)cc1 (centres unmarked),0.186
12,COc1ccc(-c2nc(C)ncc2-c2ccccc2)c(O)c1,14
13,CNc1oc(-c2ccccc2F)nc1S(=O)(=O)c1ccc(C)cc1,12.3
14,CCc1cc2c(SCC(=O)N3CC(=O)Nc4ccccc43)ncnc2s1,2.28
15,Cn1c(Nc2cccc(Cl)c2)nc2ccccc21,18.2
16,CCCCOc1ccc(/C=C/C(=O)OCC(=O)c2c(N)n(C)c(=O)n(C)c2=O)cc1OCC,9.43
17,O=c1c2c(nc3n1CCCCC3)-c1ccccc1CC21CCCC1,-9.28
18,O=C(Nc1ccc(Cn2cccn2)cc1)c1ccc(COc2ccc(Br)cc2)cc1,8.95
19,O=C(CN1CCCCC1)Nc1nnc(-c2ccccc2)s1,-1.12
20,O=C(CSC1=Nc2ccccc2C2=NC(c3ccccc3)C(=O)N12)NC1CCCCC1 (centres unmarked),3.01

# — PMC4336329 (PLoS ONE, 2015)
